{"source": "PubChem BioAssay AID504332", "about": "(National Center for Advancing Translational Sciences (NCATS), 2011)", "note": "Screen size: about 350,000 compounds; about 31,000 (8.9%) were called active. The inconclusive results got no clear call from the source; some entries with a clear call stand among them for comparison. Calls come from the whole dose curve; as a rule, active = well fitted inhibition curve with a large enough effect; inconclusive = small, poorly fitted or top-dose-only effect; inactive = no such curve, though single readings can be large or run the other way. A potency beside an inconclusive call is a rough fit, not a confirmed value. % is set by controls: 0 for no effect and ±100 for the full control effect; potency is the fitted concentration of half-maximal effect; tags give direction and shape of the fitted curve."}
{"target": "Histone-lysine N-methyltransferase EHMT2 (Homo sapiens) (UniProt Q96KQ7)", "sequence (Q96KQ7 whole entry, looked up)": "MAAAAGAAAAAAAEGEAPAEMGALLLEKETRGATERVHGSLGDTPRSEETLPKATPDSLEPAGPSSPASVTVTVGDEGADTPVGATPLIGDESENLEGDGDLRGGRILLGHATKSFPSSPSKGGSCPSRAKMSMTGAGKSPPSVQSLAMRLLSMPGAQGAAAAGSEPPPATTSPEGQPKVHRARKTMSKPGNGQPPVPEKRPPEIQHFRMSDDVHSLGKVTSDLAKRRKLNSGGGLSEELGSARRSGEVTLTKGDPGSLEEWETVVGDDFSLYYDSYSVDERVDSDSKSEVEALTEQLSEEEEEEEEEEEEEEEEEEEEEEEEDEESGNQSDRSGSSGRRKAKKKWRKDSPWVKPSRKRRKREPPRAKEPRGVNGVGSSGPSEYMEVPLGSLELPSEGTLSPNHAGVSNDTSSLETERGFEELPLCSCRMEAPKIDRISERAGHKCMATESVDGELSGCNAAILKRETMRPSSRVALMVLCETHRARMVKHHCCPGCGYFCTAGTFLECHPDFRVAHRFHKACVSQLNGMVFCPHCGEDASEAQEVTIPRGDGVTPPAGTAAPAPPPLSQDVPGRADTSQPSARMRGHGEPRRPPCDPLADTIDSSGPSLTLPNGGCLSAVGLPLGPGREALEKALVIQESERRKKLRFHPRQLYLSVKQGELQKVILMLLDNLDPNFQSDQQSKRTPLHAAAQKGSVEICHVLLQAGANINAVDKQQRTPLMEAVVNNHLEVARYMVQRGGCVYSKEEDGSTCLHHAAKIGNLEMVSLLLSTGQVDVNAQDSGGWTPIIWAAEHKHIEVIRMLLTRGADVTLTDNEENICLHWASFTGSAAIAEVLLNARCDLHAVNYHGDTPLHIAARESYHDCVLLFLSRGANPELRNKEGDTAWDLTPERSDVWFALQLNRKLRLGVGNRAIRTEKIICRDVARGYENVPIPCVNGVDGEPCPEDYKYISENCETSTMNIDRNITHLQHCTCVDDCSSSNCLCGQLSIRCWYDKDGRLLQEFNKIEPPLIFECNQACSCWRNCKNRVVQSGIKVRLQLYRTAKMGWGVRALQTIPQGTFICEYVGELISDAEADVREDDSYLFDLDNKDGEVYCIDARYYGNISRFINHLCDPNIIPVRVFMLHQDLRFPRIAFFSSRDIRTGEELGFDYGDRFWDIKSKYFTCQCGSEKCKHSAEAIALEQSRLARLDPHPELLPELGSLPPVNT", "experiment": "qHTS Assay for Inhibitors of Histone Lysine Methyltransferase G9a; note: nearly all actives have a fitted effect of over 75% in size", "details": "G9a H3K9 monomethylation, AlphaScreen, 2 h; activity, negative = inhibition: at 59 µM (top of the series) unless noted", "summary_of_the_method": "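Using a bead-based AlphaScreen, monomethylated H3K9 product from 2 h room-temperature reactions (G9a 20 nM, peptide 500 nM, SAM 20 uM) was detected with 0.5 ug/mL rabbit anti-H3K9me1 antibody.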"}
{"smiles": "O=c1c2cnn(-c3ccccc3)c2ncn1Cc1ccccc1F", "Potency": "inactive"}
{"smiles": "COc1cc(-c2ccccc2)nc2ccccc12", "Potency": "inactive"}
{"smiles": "CCC1(c2ccccc2)NC(=O)N(CC(=O)Nc2ccc(S(=O)(=O)Nc3ncccn3)cc2)C1=O", "note": "(stereo unspecified)", "Potency": "inconclusive: 89.1 µM [inhibitor, partial curve, poor fit]"}
{"smiles": "O=C(NCc1cccs1)C1CCN(C(=O)N2CCOc3ccc(Cl)cc32)CC1", "Potency": "inconclusive: 7.94 µM [inhibitor, partial curve, poor fit]"}
{"smiles": "CC(=O)N1CCC2(CC1)C(C#N)=C(N)Oc1n[nH]c(C(F)(F)F)c12", "Potency": "inconclusive: 39.8 µM [inhibitor, single point]"}
{"smiles": "NC(=O)CC(NC(=O)c1ccccc1)c1ccc(NCc2ccc(F)c(F)c2)c([N+](=O)[O-])c1", "note": "(stereo unspecified)", "Potency": "active: 70.8 µM"}
{"smiles": "O=C(/C(=C/O)N=Nc1ccccc1)c1cccs1", "Potency": "active: 35.5 µM"}
{"smiles": "CNS(=O)(=O)c1cn(CC(=O)Nc2ccc(C(C)=O)cc2)cc1S(=O)(=O)NC", "Potency": "inactive"}
{"smiles": "Nc1ccc(S(=O)(=O)O)cn1", "Potency": "inconclusive: 89.1 µM [inhibitor, partial curve, poor fit]"}
{"smiles": "Cc1nc(C(=O)NNC(=O)c2ccc(Cl)cc2)cs1", "activity, negative = inhibition": "inconclusive: -99% [inhibitor]"}
{"smiles": "CCOc1ccccc1NC(=O)N1CCC(NC(=O)c2cccc(C)c2)CC1", "Potency": "active: 31.6 µM"}
{"smiles": "CCC(c1nnnn1C1CCCCC1)N1CCN(C2CCCC2)CC1", "note": "(stereo unspecified)", "Potency": "inconclusive: 28.2 µM [inhibitor, partial curve, poor fit]"}
{"smiles": "O=C(O)CCN1CC2([N+](=O)[O-])C=CC(=O)C([N+](=O)[O-])(C1)C2CC(=O)c1ccccc1", "note": "(stereo unspecified)", "Potency": "inconclusive: 39.8 µM [inhibitor, single point]"}
{"smiles": "COc1ccc(OC)c(C2=NOC(C(=O)NCc3ccco3)C2)c1", "note": "(stereo unspecified)", "Potency": "inconclusive: 79.4 µM [inhibitor, partial curve, poor fit]"}
{"smiles": "O=C(NCC(c1ccco1)N1CCCC1)c1cn(-c2ccccc2)nc1-c1ccc(F)cc1", "note": "(stereo unspecified)", "Potency": "inconclusive: 50.1 µM [inhibitor, partial curve]"}
{"smiles": "COc1ccc(C(=O)NCc2ccc3[nH]c(C)cc3c2)cc1OC", "Potency": "active: 35.5 µM"}
{"smiles": "Cc1cc2cc(C(c3nnnn3CC3CCCO3)N3CCCc4ccccc43)c(=O)[nH]c2cc1C", "note": "(stereo unspecified)", "Potency": "inconclusive: 2.24 µM [inhibitor, partial curve, poor fit]"}
{"smiles": "Cc1ccc(S(=O)(=O)C(CNC(=O)C(=O)NCc2ccccc2C)c2cccs2)cc1", "note": "(stereo unspecified)", "Potency": "inactive"}
{"smiles": "Cc1cccc(-n2nc3c(c2NC(=O)CCCl)CSC3)c1", "activity, negative = inhibition": "inactive: 18.2% [at 2.33 µM]"}
{"smiles": "COCCNC(C)C(=O)Nc1ccc(Br)cc1", "note": "(stereo unspecified)", "Potency": "active: 11.2 µM"}
{"smiles": "Cc1ccc(NC(=O)CN(C)CC(=O)Nc2ccccc2-c2ccccc2)cc1", "Potency": "inactive"}
{"smiles": "CCOC(=O)N1CCC(NS(=O)(=O)c2cc(Br)cnc2N)CC1", "Potency": "inactive"}
{"smiles": "NC(=S)N/N=C/c1cn(-c2ccccc2)nc1-c1cccnc1", "Potency": "inactive"}
{"smiles": "CC(C)OC(=O)c1c(-c2ccccc2)c(-c2ccccc2)nn(C)c1=O", "Potency": "inconclusive: 25.1 µM [inhibitor, single point]"}
{"smiles": "Cc1cccc(OCCCc2c(C)n[nH]c2C)c1", "Potency": "inconclusive: 39.8 µM [inhibitor, single point]"}
{"smiles": "S=c1[nH]nc(-c2ccco2)n1-c1ccccc1Cl", "Potency": "inconclusive: 17.8 µM [inhibitor, full curve]"}
{"smiles": "Cc1cc(C)c(Cn2c(C3CC(=O)N(c4ccc(F)cc4)C3)nc3ccccc32)c(C)c1", "note": "(stereo unspecified)", "Potency": "inconclusive: 1 µM [inhibitor, full curve]"}
{"smiles": "COc1ccccc1C1C([N+](=O)[O-])=CC([N+](=O)[O-])=CN1C", "note": "(stereo unspecified)", "Potency": "inconclusive: 7.94 µM [inhibitor, partial curve, poor fit]"}
{"smiles": "Cc1nnc(NC(=O)c2cccc(F)c2)s1", "Potency": "inactive"}
{"smiles": "COC(=O)CCCC1=CC2=CC(=O)C(C)(OC(=O)c3cccs3)C(=O)C2=CN1C1CCCCC1", "note": "(stereo unspecified)", "Potency": "inactive"}
{"smiles": "Cc1cccc(N=Nc2c(C)[nH]n(C(N)=S)c2=O)c1C", "Potency": "inconclusive: 39.8 µM [inhibitor, partial curve, poor fit]"}
{"smiles": "O=C(O)CCc1nn2cnc3sc4c(c3c2nc1=O)CCCC4", "activity, negative = inhibition": "inactive: -8.64% [at 12.7 µM]"}
{"smiles": "Cn1c(=O)[nH]c(=O)c2c1nc(SCC(=O)Nc1ccccc1)n2Cc1ccccc1", "Potency": "inconclusive: 44.7 µM [inhibitor, partial curve, poor fit]"}
{"smiles": "O=C(O)CCCCCN1C(=O)/C(=C\\c2ccc(-c3ccc(Cl)cc3)o2)SC1=S", "Potency": "inconclusive: 44.7 µM [inhibitor, partial curve, poor fit]"}
{"smiles": "O=C(O)c1ccc(Nc2cc(Cl)c3nonc3c2[N+](=O)[O-])cc1", "Potency": "active: 35.5 µM"}
{"smiles": "O=C1c2ccccc2CC1Sc1nnc(-c2ccccn2)o1", "note": "(stereo unspecified)", "Potency": "inconclusive: 22.4 µM [inhibitor, single point]"}
{"smiles": "COc1ccc(/C=C(\\NC(=O)c2ccco2)C(=O)NC(Cc2ccccc2)C(=O)O)cc1", "note": "(stereo unspecified)", "Potency": "inactive"}
{"smiles": "CCC1CCCCN1CCCNC(=O)c1ccc(CS(=O)(=O)c2ccc(Br)cc2)o1", "note": "(stereo unspecified)", "Potency": "inactive"}
{"smiles": "O=C(COc1ccccc1[N+](=O)[O-])N/N=C/C=C/c1ccco1", "Potency": "active: 39.8 µM"}
{"smiles": "COc1cccc(C(=O)NCC2CCCO2)c1", "note": "(stereo unspecified)", "Potency": "inconclusive: 44.7 µM [inhibitor, partial curve, poor fit]"}
{"smiles": "CCCN1CCN(c2ncnc3sc(C(=O)Nc4c(C)cc(C)cc4C)c(C)c23)CC1", "activity, negative = inhibition": "inactive: -18.2% [at 12.7 µM]"}
{"smiles": "Cc1nc(C)c(/C(O)=C/c2nc3ccccc3oc2=O)s1", "Potency": "inconclusive: 28.2 µM [inhibitor, single point]"}
{"smiles": "COc1ccc(Nc2oc(COc3ccc(C)cc3)nc2C#N)cc1", "Potency": "inconclusive: 28.2 µM [inhibitor, single point]"}
{"smiles": "Cc1ccc(C2C=C(c3ccccc3OC(F)F)Nc3ncnn32)cc1", "note": "(stereo unspecified)", "activity, negative = inhibition": "inconclusive: -84.6% [inhibitor]"}
{"smiles": "COc1ccc2nc(/N=C/c3c(C)[nH]n(-c4ccc(C)cc4)c3=O)sc2c1", "Potency": "inconclusive: 79.4 µM [inhibitor, partial curve, poor fit]"}
{"smiles": "CCN(CC)C(=O)Cn1cc(C(=O)C(=O)N2CCN(c3ccc(OC)cc3)CC2)c2ccccc21", "Potency": "active: 50.1 µM"}
{"smiles": "CCOC(=O)c1[nH]c(=O)[nH]c1CSCCO", "Potency": "inconclusive: 89.1 µM [inhibitor, single point]"}
{"smiles": "COC(=O)c1ccccc1NC(=O)COC(=O)CSc1nnc(N)s1", "Potency": "active: 28.2 µM"}
{"smiles": "CCCCOC(=O)/C=C\\C(=O)NC(N)=O", "Potency": "active: 44.7 µM"}
{"smiles": "CN(C)CCNC(=O)c1ccccc1-c1ccccc1", "Potency": "inactive"}
{"smiles": "CCOC(=O)N1CCN(C(=O)COc2cccc3c2CCN(Cc2ccc(F)cc2)C3=O)CC1", "Potency": "inactive"}
{"smiles": "O=C(CSc1nnnn1C1CCCC1)N1CCN(C(=O)c2ccco2)CC1", "Potency": "inconclusive: 50.1 µM [inhibitor, partial curve, poor fit]"}
{"smiles": "Cc1ccc(S(=O)(=O)c2c(C)nn(C(C)(C)C)c2OC(=O)c2ccco2)cc1", "Potency": "inconclusive: 70.8 µM [inhibitor, partial curve, poor fit]"}
{"smiles": "COC(=O)c1ccc(COC(=O)C(CCSC)NC(=O)COc2ccccc2)cc1", "note": "(stereo unspecified)", "Potency": "inactive"}
{"smiles": "CCOc1ccc(N=C2C(=O)Nc3ccc(C)c(Br)c32)cc1", "Potency": "inconclusive: 70.8 µM [inhibitor, partial curve, poor fit]"}
{"smiles": "CCNS(=O)(=O)c1ccc(CCC(=O)NCc2ccccc2)cc1", "Potency": "inconclusive: 79.4 µM [inhibitor, partial curve, poor fit]"}
{"smiles": "O=C(Cc1c(Sc2ccccc2)c2ccccc2n1Cc1ccccc1)NCCO", "Potency": "inactive"}
{"smiles": "CCn1ccnc1CN(C)Cc1cn(-c2ccc(C)cc2)nc1-c1cccc(C)c1", "Potency": "active: 31.6 µM"}
{"smiles": "C/C(=N\\Nc1c(F)c(F)c(Br)c(F)c1F)c1ccncc1", "Potency": "inconclusive: 89.1 µM [inhibitor, single point]"}
{"smiles": "COc1cc(CNCc2ccccn2)ccc1OCC(=O)NC1CCCCC1", "Potency": "inconclusive: 39.8 µM [inhibitor, single point]"}
{"smiles": "CCCCn1c(N)c(N(CCC(C)C)C(=O)C2CC(=O)N(c3ccc4c(c3)OCCO4)C2)c(=O)[nH]c1=O", "note": "(stereo unspecified)", "Potency": "inconclusive: 89.1 µM [inhibitor, single point]"}
{"smiles": "NC(=O)C1(N2CCCCC2)CCN(C(=O)Nc2ccc(F)cc2F)CC1", "Potency": "inactive"}
{"smiles": "CCOC(=O)CNS(=O)(=O)c1cc(-c2nn(C)c(=O)c3ccccc23)ccc1C", "Potency": "inconclusive: 79.4 µM [inhibitor, single point]"}
{"smiles": "CN1/C(=C\\C=Nc2ccc3ccccc3c2)C(C)(C)c2ccccc21", "Potency": "active: 1.78 µM"}
{"smiles": "Nc1ccc(NC(=O)Nc2ccc(N)cc2)cc1", "Potency": "inconclusive: 89.1 µM [inhibitor, single point]"}
{"smiles": "O=C(NNC(=O)C1CC2CCC1C2)c1sc2ccccc2c1Cl", "note": "(stereo unspecified)", "Potency": "inactive"}
{"smiles": "Cc1cccc(C(=O)N2c3nc(-c4ccco4)nn3C3(CCCCC3)[C@@H]3CCCC[C@@H]32)c1", "Potency": "inconclusive: 22.4 µM [inhibitor, single point]"}
{"smiles": "CCN=c1sc(C(=O)NCCc2ccccc2)cc(=O)n1CC", "activity, negative = inhibition": "inconclusive: -72.6% [inhibitor]"}
{"smiles": "CCOc1ccccc1NC(=O)Nc1ccc(Cl)cc1", "Potency": "inconclusive: 100 µM [inhibitor, single point]"}
{"smiles": "Cc1c(NC(=O)CSc2ccc(Cl)cc2)c(=O)n(-c2ccccc2)n1C", "Potency": "inconclusive: 39.8 µM [inhibitor, partial curve, poor fit]"}
{"smiles": "Cc1ccc(Cn2ccnc2SCC(=O)Nc2nc3ccccc3s2)cc1", "Potency": "inconclusive: 28.2 µM [inhibitor, single point]"}
